16 molecules from ChEMBL document CHEMBL1201862, “PubChem BioAssay data set” (2004) can be followed below.

Structures are written as SMILES. Structures can show the parent of a compound that is named as a salt.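 1) Cells in 96-well plates. 2) Compound, 48 h, 5 concentrations. 3) Linear interpolation between surrounding doses. 4) Unreached endpoint = highest concentration. GI50 marks 50% less growth.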 The source made the active and inactive calls. Rule as the data show it: active = GI50 up to about 1.1 µM and inactive = higher. Numbered stars: 1 amine (or outer) side, 2 acyl side, 3 side chain; on linkers, the order of the positions; unused ones are H or OH. Bridge positions count the residues as written; N and C are the ends. Square brackets hold non-standard residues; d marks the D form. Peptide text beside a SMILES is read from it. I, II: the chains in the order shown. * marks the point of attachment. ξ: configuration not given here. Actinocin(1to9) = Cc1c2oc3c(C)ccc(C(=O)[*:2])c3nc-2c(C(=O)[*:1])c(N)c1=O; Actinocin(9to1) = Cc1c2oc3c(C)ccc(C(=O)[*:1])c3nc-2c(C(=O)[*:2])c(N)c1=O; X21 = O=C(/C=C/C=C/C=C/C=C/C=C/C(=O)*)NC1=C(O)CCC1=O; ξOrn(4,5-diOH) = O=C(C(CC(O)C(O)N[*:3])N[*:1])[*:2]; ξhTyr(βξ-OH,γξ-OH) = NC(C(=O)O)C(O)C(O)c1ccc(O)cc1; Pro(4R-Me) = C[C@H]1CN[C@H](C(=O)O)C1; ξPro(3ξ-OH,4ξ-Me) = CC1CNC(C(=O)O)C1O; X33 = O=C(c1ccc(-c2ccc(Cl)cc2Cl)o1)*; X51 = CCCCC/C=C/C/C=C\CCCCCCCC(=O)*; X44 = O=C1CC(C(=O)[*:2])N([*:1])C1; NMeH = CN[CH](Cc1c[nH]cn1)C(=O)O; Cya = N[CH](CS(=O)(=O)O)C(=O)O; X45 = CC(C)CCCCCCCC(O)CC(=O)*; Hyp = O=C(O)[CH]1C[CH](O)CN1; NMeV = CN[CH](C(=O)O)C(C)C; NMeA = CN[C@@H](C)C(=O)O; Octanoyl = CCCCCCCC(=O)*; ξF = NC(Cc1ccccc1)C(=O)O; PhAc = O=C(Cc1ccccc1)*; Aib = CC(C)(N)C(=O)O; Tfa = O=C(C(F)(F)F)*; ξP = O=C(O)C1CCCN1; Ava = NCCCCC(=O)O; GABA = NCCCC(=O)O; ξA = CC(N)C(=O)O; Mpa = O=C(O)CCS; Sar = CNCC(=O)O; tBu = CC(C)(C)*

The subject of the assay is NCI-H322M. Kind of assay: inhibition of tumour cell growth, NCI panel, 48 h.
With `Cc1c2oc3c(C)ccc(C(=O)NC4C(=O)NC(C(C)C)C(=O)N5CCCC5C(=O)N(C)CC(=O)N(C)C(Cc5cnc[nH]5)C(=O)OC4C)c3nc-2c(C(=O)NC2C(=O)NC(C(C)C)C(=O)N3CCCC3C(=O)N(C)CC(=O)N(C)C(Cc3cnc[nH]3)C(=O)OC2C)c(N)c1=O` (stereo unspecified) (I: TVP[Sar][NMeH] / II: TVP[Sar][NMeH]; ester I:1-I:C, II:1-II:C; linker I:N-II:N via Actinocin(9to1); configuration not given here), the GI50 was inactive: 67.3 µM.
Turning to `Cc1c2oc3c(C)ccc(C(=O)NC4C(=O)NC(C(C)C)C(=O)N5CCCC5C(=O)N(C)CC(=O)N(C)C(C(C)C)C(=O)OC4C)c3nc-2c(C(=O)NC2C(=O)NC(C(C)C)C(=O)N3CCCC3C(=O)N(C)CC(=O)N(C)C(C(C)C)C(=O)OC2C)c(N)c1=O` (stereo unspecified) (I: TVP[Sar][NMeV] / II: TVP[Sar][NMeV]; ester I:1-I:C, II:1-II:C; linker I:N-II:N via Actinocin(9to1); configuration not given here), the GI50 is active: 0.000604 µM.
The figure for `Cc1c2oc3c(C)ccc(C(=O)NC4C(=O)NC(C(C)C)C(=O)N5CC(O)CC5C(=O)N(C)CC(=O)N(C)C(C(C)C)C(=O)OC4C)c3nc-2c(C(=O)NC2C(=O)NC(C(C)C)C(=O)N3CC(O)CC3C(=O)N(C)CC(=O)N(C)C(C(C)C)C(=O)OC2C)c(N)c1=O` (stereo unspecified) (I: TV[Hyp][Sar][NMeV] / II: TV[Hyp][Sar][NMeV]; ester I:1-I:C, II:1-II:C; linker I:N-II:N via Actinocin(9to1); configuration not given here) is active: > 1 µM; for `Cc1c2oc3c(C)ccc(C(=O)NC4C(=O)NC(C(C)C)C(=O)N5CC(=O)CC5C(=O)N(C)CC(=O)N(C)C(C(C)C)C(=O)OC4C)c3nc-2c(C(=O)NC2C(=O)NC(C(C)C)C(=O)N3CC(=O)CC3C(=O)N(C)CC(=O)N(C)C(C(C)C)C(=O)OC2C)c(N)c1=O` (stereo unspecified) (I: TV[X44][Sar][NMeV] / II: TV[X44][Sar][NMeV]; ester I:1-I:C, II:1-II:C; linker I:N-II:N via Actinocin(9to1); configuration not given here) it is active: > 1 µM; for `COc1ccc(CC2NC(=O)C(NC(=O)c3c4nc5c(C(=O)NC6C(=O)NC(Cc7ccc(OC)cc7)C(=O)N7CCCC7C(=O)N(C)CC(=O)N(C)C(C(C)C)C(=O)OC6C)ccc(C)c5oc-4c(C)c(=O)c3N)C(C)OC(=O)C(C(C)C)N(C)C(=O)CN(C)C(=O)C3CCCN3C2=O)cc1` (stereo unspecified) (I: TY(Me)P[Sar][NMeV] / II: TY(Me)P[Sar][NMeV]; ester I:1-I:C, II:1-II:C; linker I:N-II:N via Actinocin(1to9); configuration not given here) it is active: < 0.001 µM.
The figure for `Cc1c2oc3c(C)ccc(C(=O)NC4C(=O)NC(Cc5ccc(O)cc5)C(=O)N5CCCC5C(=O)N(C)CC(=O)N(C)C(C(C)C)C(=O)OC4C)c3nc-2c(C(=O)NC2C(=O)NC(Cc3ccc(O)cc3)C(=O)N3CCCC3C(=O)N(C)CC(=O)N(C)C(C(C)C)C(=O)OC2C)c(N)c1=O` (stereo unspecified) (I: TYP[Sar][NMeV] / II: TYP[Sar][NMeV]; ester I:1-I:C, II:1-II:C; linker I:N-II:N via Actinocin(9to1); configuration not given here) is active: 0.9 µM; for `CCCCCCCC(=O)NC(C)(C)C(=O)NC(COC(C)(C)C)C(=O)NC(CC(C)C)C(=O)NC(C)(C)C(=O)NC(COC(C)(C)C)C(=O)NC(COC(C)(C)C)C(=O)NC(CC(C)C)C(=O)NC(C)(C)C(=O)NC(COC(C)(C)C)C(=O)NC(C(=O)NC(CC(C)C)C(=O)OC)C(C)CC` (stereo unspecified) (Octanoyl-[Aib]S(tBu)L[Aib]S(tBu)S(tBu)L[Aib]S(tBu)IL-OMe; configuration not given here) it is inactive: 7.87 µM; for `O=C(Cc1ccccc1)N[C@@H]1COC(=O)C2CCCN2C(=O)[C@@H]2CCCN2C1=O` (stereo partly specified) (PhAc-[dS]-Pro-[ξP]; ester 1-C) it is inactive: > 100 µM.
The figure for `O=C(O)CC(NC(=O)C(F)(F)F)C(=O)NC(Cc1ccc(O)cc1)C(=O)O` (stereo not drawn) (Tfa-Asp-Tyr-OH; configuration not given here) is inactive: > 50 µM; for `CC1NC(=O)[C@H](C)N(C)C(=O)[C@@H]2CCCN2C(=O)[C@@H](NC(=O)C(Cc2ccccc2)NC(=O)/C=C/C=C/C=C/C=C/C=C/C(=O)NC2=C(O)CCC2=O)COC(=O)[C@@H]2CCCN2C1=O` (stereo partly specified) (X21-[ξF]SP[NMeA][ξA]P; ester 2-C) it is inactive: > 100 µM.
For the molecule `CC1NC(=O)[C@H](C)N(C)C(=O)[C@@H]2CCCN2C(=O)[C@@H](NC(=O)C(Cc2ccccc2)NC(=O)/C=C/C=C/C=C/C=C/C=C/C(=O)NC2=C(O)CCC2=O)COC(=O)[C@@H]2C[C@@H](C)CN2C1=O` (stereo partly drawn) (X21-[ξF]SP[NMeA][ξA][Pro(4R-Me)]; ester 2-C), the GI50 was inactive: > 100 µM.
As for `COC(=O)C(CC(C)C)NC(=O)C(Cc1ccccc1)NC(=O)C1CCCN1C(=O)C(CO)NC(=O)c1ccc(-c2ccc(Cl)cc2Cl)o1` (stereo unspecified) (X33-SPFL-OMe; configuration not given here), the GI50 was inactive: 16.9 µM.
As for `CC(C)CCCCCCCC(O)CC(=O)NC(CS(=O)(=O)O)C(=O)NC(CC(C)C)C(=O)NCCCC(=O)NC(Cc1c[nH]cn1)C(=O)NC(C)C(=O)NC1C(=O)NC(C(C)O)C(=O)NC(Cc2c[nH]cn2)C(=O)NC(C)C(=O)NC(C(C)O)C(=O)OC1C` (stereo unspecified) (X45-[Cya]L[GABA]HATTHAT; ester 6-C; configuration not given here), the GI50 is inactive: > 25 µM.
Regarding `CCCCC/C=C/C/C=C\CCCCCCCC(=O)NC1CC(O)C(O)NC(=O)C2C(O)C(C)CN2C(=O)C(C(C)O)NC(=O)C(C(O)C(O)c2ccc(O)cc2)NC(=O)C2CC(O)CN2C(=O)C(C(C)O)NC1=O` (stereo not drawn) (X51-[ξOrn(4,5-diOH)]T[Hyp][ξhTyr(βξ-OH,γξ-OH)]T[ξPro(3ξ-OH,4ξ-Me)]; lactam 1-C; configuration not given here), the GI50 is inactive: > 100 µM.
Regarding `CC(NC(=O)CCS)C(=O)NC(C)C(=O)NC(Cc1c[nH]c2ccccc12)C(=O)NC(Cc1c[nH]cn1)C(=O)NC(CO)C(=O)NC(Cc1c[nH]c2ccccc12)C(=O)NCCCCC(=O)NC(C)C(=O)NC(CCC(N)=O)C(=O)NC(CCCCN)C(=O)NC(C)C(=O)NC(CCCNC(=N)N)C(=O)NC(CCCCN)C(N)=O` (stereo unspecified) ([Mpa]AAWHSW[Ava]AQKARK-NH2; configuration not given here), the GI50 was inactive: > 100 µM.
For the molecule `CCC(C)C1NC(=O)C(CC(C)C)NC(=O)C(C(C)C)NC(=O)C2CSSCC(NC1=O)C(=O)N2` (stereo unspecified) (cyclo(CCVLI); disulfide 1-2; configuration not given here), the GI50 is active: 0.158 µM.
